Test results reported in the RNAGym collection of RNA variant scans (doi:10.1093/nar/gkz1192).
Read counts are not given, so values of variants with three or more changes are uncertain.

B1: CPEB3 Ribozyme (parent)
chain: UAACAGGGGGCCACAGCAGAAGCGUUCACGUCGCAGCCCCUGUCAGAUUCUGGUGAAUCUGCGAAUUCUGCUGUAUAUCUC

Variants of: B1
Experiment: self-cleavage, relative activity (ratio to wild type); higher = more cleavage; in vitro, sequencing
How it was run: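 Barcoded CPEB3 ribozyme mutants, produced by rounds of error-prone PCR, self-cleaved while being transcribed with T7 RNA polymerase for 5 hours at 37°C and during a subsequent 15 min DNase I step before EDTA was added. Sequencing of template-switched cDNA on Illumina gave cleaved and total reads, and DNA sequencing assigned barcodes to variants. Each variant's relative activity is its cleaved/total read fraction divided by the unmutated ribozyme's fraction, averaged across three batches. A variant needed a minimum of 5 reads.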

With A18U U26A U72C as the variant, how does the self-cleavage read?
Its self-cleavage is 0.14.

With A18U U26C A28C as the variant, how does the self-cleavage read?
The self-cleavage was 0.1.

With A18U U26C A28U U67A as the variant, how does the self-cleavage read?
The self-cleavage was 0.07.

For A18U U26C A35U A45U U54C A77G, which self-cleavage is on record?
The self-cleavage was 0.2.

Which self-cleavage does the source give for A18U U26C A35U U60C U66C here?
The self-cleavage was 0.14.

For A18U U26C A45G G52A U69A C71A A77G, which self-cleavage is on record?
Its self-cleavage is 0.13.

With A18U U26C A56G as the variant, how does the self-cleavage read?
Its self-cleavage is 0.2.

Which self-cleavage does the source give for A18U U26C A57G G73U here?
The self-cleavage was 0.11.

For A18U U26C A64U U69C U76C, which self-cleavage is on record?
The self-cleavage was 0.07.

Which self-cleavage does the source give for A18U U26C C37A U49C here?
Its self-cleavage is 0.15.

For A18U U26C G33A, which self-cleavage is on record?
The self-cleavage was 0.24.

With A18U U26C U31A U60A as the variant, how does the self-cleavage read?
Its self-cleavage is 0.16.

Which self-cleavage does the source give for A18U U26C U31C U60G here?
The self-cleavage was 0.06.

Which self-cleavage does the source give for A18U U26C U41C U66C here?
The self-cleavage was 0.07.

Which self-cleavage does the source give for A18U U26C U43C U51A U60C A77G here?
Its self-cleavage is 0.15.

For A18U U26C U76C, which self-cleavage is on record?
The self-cleavage was 0.42.

With A18U U26G A35G as the variant, how does the self-cleavage read?
Its self-cleavage is 0.14.

For A18U U26G A35G A56G U60A C68U, which self-cleavage is on record?
Its self-cleavage is 0.09.

For A18U U26G A57G U60A, which self-cleavage is on record?
The self-cleavage was 0.12.

For A18U U26G A57U, which self-cleavage is on record?
The self-cleavage was 0.17.

For A18U U26G U60A C68A, which self-cleavage is on record?
The self-cleavage was 0.04.

With A18U U31A A45G U48C as the variant, how does the self-cleavage read?
The self-cleavage was 0.14.

Which self-cleavage does the source give for A18U U31A A47G U54G U60G U72C here?
The self-cleavage was 0.15.

With A18U U31A A56U U67C as the variant, how does the self-cleavage read?
Its self-cleavage is 0.11.

For A18U U31A A64G U78C, which self-cleavage is on record?
Its self-cleavage is 0.08.

For A18U U31A U41A C44A A56U, which self-cleavage is on record?
The self-cleavage was 0.08.

For A18U U31A U41C, which self-cleavage is on record?
The self-cleavage was 0.2.

With A18U U31A U41C A64U as the variant, how does the self-cleavage read?
Its self-cleavage is 0.14.

With A18U U31C A35G A47G U74C as the variant, how does the self-cleavage read?
Its self-cleavage is 0.47.

For A18U U31C A35U A65G, which self-cleavage is on record?
Its self-cleavage is 0.12.

Which self-cleavage does the source give for A18U U31C A56G A65G U67C here?
Its self-cleavage is 0.07.

For A18U U31C A56U, which self-cleavage is on record?
The self-cleavage was 0.19.

Which self-cleavage does the source give for A18U U31C U41C G46A U72C here?
Its self-cleavage is 0.22.

With A18U U31C U49C as the variant, how does the self-cleavage read?
The self-cleavage was 0.05.

For A18U U31C U49C U54A U80A, which self-cleavage is on record?
Its self-cleavage is 0.09.

For A18U U31C U49C U72G, which self-cleavage is on record?
Its self-cleavage is 0.11.

With A18U U31C U51C U67C U72G as the variant, how does the self-cleavage read?
The self-cleavage was 0.12.

For A18U U31C U58C U60C, which self-cleavage is on record?
Its self-cleavage is 0.16.

With A18U U31C U60A U78A as the variant, how does the self-cleavage read?
Its self-cleavage is 0.12.

For A18U U31C U66C, which self-cleavage is on record?
Its self-cleavage is 0.35.

For A18U U31C U72A A75U, which self-cleavage is on record?
Its self-cleavage is 0.04.

Which self-cleavage does the source give for A18U U31G U41A A56G A64G U74C here?
Its self-cleavage is 0.05.

For A18U U41A A47U, which self-cleavage is on record?
The self-cleavage was 0.21.

Which self-cleavage does the source give for A18U U41A U60C U69C U72A U74C here?
Its self-cleavage is 0.06.

With A18U U41A U72C as the variant, how does the self-cleavage read?
Its self-cleavage is 0.27.

With A18U U41C A45U U48C A75U U78A as the variant, how does the self-cleavage read?
The self-cleavage was 0.25.

Which self-cleavage does the source give for A18U U41C A56U here?
Its self-cleavage is 0.16.

With A18U U41C A65G as the variant, how does the self-cleavage read?
The self-cleavage was 0.23.

With A18U U41C U51C G61A as the variant, how does the self-cleavage read?
The self-cleavage was 0.29.

For A18U U41C U54A, which self-cleavage is on record?
Its self-cleavage is 0.46.

Which self-cleavage does the source give for A18U U41C U72C here?
The self-cleavage was 0.26.

For A18U U41G U60A G73A U78C U80C, which self-cleavage is on record?
The self-cleavage was 0.34.

With A18U U43A U54C U78C as the variant, how does the self-cleavage read?
Its self-cleavage is 0.28.

Which self-cleavage does the source give for A18U U43A U69A U80C here?
The self-cleavage was 1.22.

Which self-cleavage does the source give for A18U U43A U69C A75G here?
The self-cleavage was 0.37.

With A18U U43A U80C as the variant, how does the self-cleavage read?
Its self-cleavage is 0.59.

For A18U U43C A56G U58C A65G U67C, which self-cleavage is on record?
The self-cleavage was 0.33.

Which self-cleavage does the source give for A18U U43C G70A here?
Its self-cleavage is 0.12.

For A18U U43C U51C, which self-cleavage is on record?
Its self-cleavage is 0.35.

For A18U U43C U67A, which self-cleavage is on record?
Its self-cleavage is 0.18.

Which self-cleavage does the source give for A18U U43C U69A A75G here?
The self-cleavage was 0.43.

For A18U U43C U72C, which self-cleavage is on record?
Its self-cleavage is 0.19.

With A18U U43C U78A as the variant, how does the self-cleavage read?
Its self-cleavage is 0.41.

With A18U U48C U49C U60C as the variant, how does the self-cleavage read?
Its self-cleavage is 0.08.

For A18U U48C U51A A57G A64G A77U, which self-cleavage is on record?
Its self-cleavage is 0.08.

Which self-cleavage does the source give for A18U U48C U54C here?
Its self-cleavage is 0.21.

For A18U U48C U60C, which self-cleavage is on record?
The self-cleavage was 0.08.

With A18U U49A U51G U78C as the variant, how does the self-cleavage read?
The self-cleavage was 0.21.

For A18U U49C A56G A65G U67C A77U, which self-cleavage is on record?
Its self-cleavage is 0.07.

Which self-cleavage does the source give for A18U U49C G70A here?
The self-cleavage was 0.26.

With A18U U49C U51C as the variant, how does the self-cleavage read?
Its self-cleavage is 0.4.

Which self-cleavage does the source give for A18U U49C U66C here?
The self-cleavage was 0.16.

With A18U U51A A56U U80C as the variant, how does the self-cleavage read?
The self-cleavage was 0.26.

For A18U U51A A65G, which self-cleavage is on record?
Its self-cleavage is 0.27.

For A18U U51A C59G U72C U80C, which self-cleavage is on record?
The self-cleavage was 0.19.

Which self-cleavage does the source give for A18U U51C G70A here?
Its self-cleavage is 0.36.

Which self-cleavage does the source give for A18U U51G A56U U76C U80C here?
The self-cleavage was 0.18.

Which self-cleavage does the source give for A18U U51G G63A here?
The self-cleavage was 0.43.

For A18U U51G U72A, which self-cleavage is on record?
The self-cleavage was 0.21.

For A18U U54A C59U, which self-cleavage is on record?
The self-cleavage was 0.33.

With A18U U54C U66C as the variant, how does the self-cleavage read?
Its self-cleavage is 0.1.

With A18U U54C U76C as the variant, how does the self-cleavage read?
Its self-cleavage is 0.37.

With A18U U54G U60C U72C as the variant, how does the self-cleavage read?
The self-cleavage was 0.16.

For A18U U58C U67C, which self-cleavage is on record?
Its self-cleavage is 0.34.
